Laboratory results: publication PMC4336329 (PLoS ONE, 2015)
Hit rate of the full screen: of about 310,000 compounds, about 2,200 (0.71%) showed an effect of 50% or more. Effects have a minus sign here. This is one part of the list.

target: human ether-à-go-go-related gene (hERG) potassium channel (human, UniProt Q12809); assay: primary screen, population patch clamp on CHO cells stably expressing hERG
Sequence (Q12809 whole entry, looked up): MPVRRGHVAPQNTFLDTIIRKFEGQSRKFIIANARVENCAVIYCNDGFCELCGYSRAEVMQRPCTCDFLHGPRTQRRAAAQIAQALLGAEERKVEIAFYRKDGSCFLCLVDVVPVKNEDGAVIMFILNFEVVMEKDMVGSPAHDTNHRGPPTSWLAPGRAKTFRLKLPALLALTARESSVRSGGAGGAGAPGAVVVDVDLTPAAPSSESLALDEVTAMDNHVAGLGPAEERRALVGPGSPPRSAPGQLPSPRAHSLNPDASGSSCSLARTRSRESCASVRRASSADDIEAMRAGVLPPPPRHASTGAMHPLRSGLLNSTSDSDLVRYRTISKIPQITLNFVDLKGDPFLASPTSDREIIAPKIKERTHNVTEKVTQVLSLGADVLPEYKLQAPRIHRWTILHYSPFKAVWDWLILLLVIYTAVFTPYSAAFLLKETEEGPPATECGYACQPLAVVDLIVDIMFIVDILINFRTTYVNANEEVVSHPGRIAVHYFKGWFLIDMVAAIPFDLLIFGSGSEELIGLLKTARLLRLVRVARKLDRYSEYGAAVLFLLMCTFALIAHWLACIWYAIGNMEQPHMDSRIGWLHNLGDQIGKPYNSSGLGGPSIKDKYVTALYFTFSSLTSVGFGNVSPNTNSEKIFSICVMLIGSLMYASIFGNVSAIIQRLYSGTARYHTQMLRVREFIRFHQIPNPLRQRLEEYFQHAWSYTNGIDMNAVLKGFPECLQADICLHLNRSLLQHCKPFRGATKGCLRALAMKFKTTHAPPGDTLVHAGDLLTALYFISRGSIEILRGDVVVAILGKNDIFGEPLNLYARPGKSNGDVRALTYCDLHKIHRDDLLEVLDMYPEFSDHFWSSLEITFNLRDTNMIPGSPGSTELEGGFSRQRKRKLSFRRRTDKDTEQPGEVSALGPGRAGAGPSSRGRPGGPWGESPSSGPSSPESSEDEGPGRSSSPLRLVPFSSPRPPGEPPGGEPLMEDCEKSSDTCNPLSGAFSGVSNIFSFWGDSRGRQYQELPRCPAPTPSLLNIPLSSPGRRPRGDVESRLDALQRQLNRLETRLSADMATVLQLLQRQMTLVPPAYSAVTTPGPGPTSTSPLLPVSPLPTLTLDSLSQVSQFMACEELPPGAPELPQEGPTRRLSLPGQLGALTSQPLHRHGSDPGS

Row | SMILES | hERG current change (%, negative = inhibition) at 1uM [%]
1 | COc1ccccc1C1CCN(Cc2ccc(C)cc2)CC1 | -61.2
2 | COc1ccc(C(=O)O)cc1N1C(=O)Nc2ccccc2N1O | 6.57
3 | COc1ccc(CN(CCC(c2ccc(F)cc2)C2CCOC(C)(C)C2)C(=O)c2ccco2)cc1 (stereo not shown) | -9.6
4 | NC(=O)c1ccsc1NC(=O)C1CCCN1S(=O)(=O)c1ccc(Cl)cc1 (stereo not shown) | -18
5 | COC(=O)c1cn(C(=O)c2ccc(C)cc2)c2ccccc12 | 11.9
6 | CCOC(=O)C1=C(C)NC(C)=C(C(=O)OC)C1c1ccco1 (stereo not shown) | 7.62
7 | C=C(C)CN1C(=O)C2(OCCO2)c2cc(Br)ccc21 | 6.49
8 | COc1ccc(-n2c(SCC(=O)Nc3cc(C)on3)nc3c([nH]c4ccccc43)c2=O)cc1OC | 16.1
9 | CCCONC(=O)Nc1ccccc1[N+](=O)[O-] | 15.7
10 | Cc1ccc(N2CCN(C(=O)N3CCCC3)CC2)cc1Cl | 18.9
11 | COCCOC(=O)c1c(NC(=O)CN(C)c2ccccc2)sc(C(N)=O)c1C | 7.19
12 | CCc1ccc(NC(=O)C(C)Sc2nc(-c3ccco3)c(C#N)c(=O)[nH]2)cc1 (stereo not shown) | 21.2
13 | COc1ccc(NC2CCCN(C(=O)c3cccnc3)C2)cc1 (stereo not shown) | 14.4
14 | CCCCN(C(=O)c1cc(=O)[nH]c2ccccc12)c1c(N)n(CCC)c(=O)[nH]c1=O | -1.15
15 | O=C(Nc1cccn(Cc2c(F)cccc2Cl)c1=O)NC1CCCCC1 | 17.6
16 | COc1ccc(NC(=O)C2CCN(S(=O)(=O)c3ccc(OC)c(OC)c3)CC2)cc1 | 12.9
17 | COc1ccc(NC(=O)CCC(=O)Nc2nnc(CC(C)C)s2)cc1Cl | 14.1
18 | Cc1cc(=O)oc2c3c(cc(OCC(=O)NC4CC4)c12)OC(C)(C)CC3 | 9.53
19 | COc1cccc(C(=O)C2CCCN(Cc3cccc(-n4cccn4)c3)C2)c1 (stereo not shown) | -15.1
20 | Cc1cc(C)c(S(=O)(=O)Nc2cccnc2)c(C)c1 | 2.61
21 | CCn1cc(C(=O)O)c(=O)c2cc(F)c(N3CCN(C(=S)NC(=O)c4ccccc4Br)CC3)cc21 | 15.2
22 | Cc1ccc(C(=O)CCC(=O)OCC(=O)Nc2c(C)nn(-c3ccccc3)c2C)cc1 | 15.1

Row | SMILES | hERG current change (%, negative = inhibition) at 1uM [%]
23 | CC(C)[C@H](NC(=O)C1CCN(S(=O)(=O)c2ccc(F)cc2)CC1)C(=O)N1CCCC1 | 18.2
24 | O=C(Nc1ncccn1)C1=C(O)c2ccccc2S(=O)(=O)N1Cc1ccccc1 | 12.1
25 | COc1ccc(NC(=O)Cn2c([N+](=O)[O-])cnc2C)cc1Cl | 3.7
26 | CCc1nc2nc(C)c(NS(=O)(=O)c3cccs3)c(=O)n2[nH]1 | 6.42
27 | O=[N+]([O-])c1cccc(CSc2nnc(Cc3ccccc3)n2-c2ccc(F)cc2)c1 | 2.27
28 | CC(C)NCC(O)COc1cccc2[nH]ccc12 (stereo not shown) | 14.3
29 | COc1cc(/C=N/NC(=O)C(N)=O)ccc1OC(=O)c1cccs1 | 12.4
30 | CCOC(=O)C1(CC2CC2)CCN(Cc2cn[nH]c2-c2cccc(F)c2)CC1 | -57.6
31 | O=C(/C=C/Sc1ccccc1)c1ccc(Cl)cc1 | 13
32 | CCOC(=O)CSc1nc2sc3c(c2c(=O)[nH]1)CCCC3 | 6.92
33 | CCCS(=O)(=O)Nc1c(OC)ccc2c1c(C(=O)OCC)c(C)n2C | 1.16
34 | O=C(COc1ccc(Cl)cc1Br)NCC(c1ccco1)N1CCCC1 (stereo not shown) | 4.95
35 | Cc1ccc(C(=O)COC(=O)CCS(=O)(=O)c2ccccc2)cc1[N+](=O)[O-] | 16.5
36 | O=C(O)C(=O)O.c1coc(CNC2CCCCC2)c1 | 1.96
37 | CCOC(=O)C1CCN(S(=O)(=O)c2ccc3c4c(cccc24)C(=O)N3)CC1 | -1.6
38 | Cc1c(OC(C)C(=O)NCc2cccnc2)ccc2c3c(c(=O)oc12)CCCC3 (stereo not shown) | 2.67
39 | Cc1onc(C(=O)Nc2ccc(OC(F)(F)F)cc2)c1[N+](=O)[O-] | 23
40 | Cc1oc2cc3c(C(=O)N4CCCCC4)c(C)oc3cc2c1C(=O)N1CCCCC1 | 2.21
41 | O=C(OCC(=O)N1CCc2ccccc21)c1ccc(Cl)nc1 | 13.1
42 | CN(C)C(=O)CSc1nnc2sc3ccccc3n12 | 9.24
43 | Cc1nc(-c2ccccc2)sc1C(=O)/C=C/c1ccccc1 | 6.29
